Test results reported in publication PMC12040169 (PLOS Biology, 2025).
The list shows a part of the results.

Test system: T1, C. trachomatis L2/434/Bu expressing GFP (CTL2-GFP)
T1 construct: L2/434/Bu GFP intracellular growth in HeLa cells
Parameters: species or system HeLa; C. trachomatis total inclusion area by high-content imaging, normalised to DMSO
Conditions: total inclusion area; 28.5 h, 10 µM; inhibitor
How it was run: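 Bulk GFP and resorufin signals were read first. Wells were then fixed, stained with Hoechst and imaged to detect GFP inclusions and host nuclei. MICs followed the previously described calculation.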

| SMILES | % of control remaining |
| --- | --- |
| O=C(Cn1nnc2ccccc21)N/N=C\c1cccc(Cl)c1Cl [CBK262931] | 45.969 |
| CCN(CC)C(=O)CN1CCC(c2ccccc2F)CC1 [CBK283549] | 98.3549 |
| CC1(C)SC(NCC2CCCCC2)=NC1=O [CBK067808] | 128.918 |
| Cc1noc(C)c1S(=O)(=O)Nc1ccc2[nH]ncc2c1 [CBK062518] | 95.2984 |
| COc1cc(NC(=O)NCCc2cccs2)cc(OC)c1OC [CBK043347] | 67.2284 |
| CC1CCCN(CC(=O)NCc2ccc(OCC(N)=O)cc2)CC1 (stereo not shown) [CBK305755] | 85.2297 |
| CC(C)OCC(O)Cn1c(N/N=C/c2ccccc2O)nc2c1c(=O)[nH]c(=O)n2C (stereo not shown) [CBK139853] | 92.044 |
| O=C(O)c1ccccc1-c1ccccc1C(=O)Nc1ccc(O)cc1 [CBK286602] | 103.867 |
| Cc1cc(C2CCCCCN2C(=O)c2ccc(F)cc2)on1 (stereo not shown) [CBK285447] | 87.9387 |
| Cc1ccc(CN(Cc2cnc(C)n2C)CC2CCCO2)o1 (stereo not shown) [CBK283291] | 118.852 |
| COc1ccccc1-c1ccc(C(=O)N(C)CCN(C)C)c(NCC2CC2)n1 [CBK106269] | 84.7759 |
| O=C(NC(c1ccc(Cl)cc1)c1ccsc1)C1CCN(CCc2ccc(F)cc2)CC1 (stereo not shown) [CBK147976] | 89.5188 |
| CCC1C(=O)N=C(SCC(=O)Nc2ncccn2)NC1=O (stereo not shown) [CBK263920] | 116.822 |
| CC[C@H]1CN(S(=O)(=O)c2c(C)noc2C)CC[C@H]1CC(=O)Nc1nccs1 [CBK288779] | 109.641 |
| CC(C)[C@H](CO)Nc1nc(-c2ccc3c(c2)OCO3)cn2ccnc12 [CBK038071] | 123.494 |
| O=C(CN1CCN(Cc2ccccc2)CC1)Nc1ccc(C(F)(F)F)cc1Cl [CBK074781] | 94.9512 |
| CCOCC1CCN(C(=O)c2ncsc2Nc2ccccc2)C1 (stereo not shown) [CBK304204] | 60.2896 |
| CCCC(=O)N1CCC(c2nc3ccccc3cc2NC(C)=O)CC1 [CBK285258] | 108.836 |
| COc1ccc(Nc2cc(-c3ccsc3)ncn2)cc1OC [CBK090820] | 144.535 |
| COc1ccc(C(C)C)cc1-c1cc(Nc2cc(OC)c(OC)c(OC)c2)n2nccc2n1 [CBK037746] | 101.504 |
| O=C(NCCN1CCC(O)(c2ccc(F)cc2)CC1)C1CC1 [CBK283164] | 89.7701 |

| SMILES | % of control remaining |
| --- | --- |
| Cc1cc(S(=O)(=O)N2CCCC2)ccc1OCC(=O)O [CBK268289] | 123.661 |
| O=C(CCC(=O)c1ccc(F)cc1)Nc1cccnc1 [CBK266901] | 114.819 |
| CC1CC(=O)Nc2ccccc2N1C(=O)Cn1c(=O)cnc2ccccc21 (stereo not shown) [CBK297116] | 64.6507 |
| CC1(C)[C@H](Cc2cc(CO)on2)C[C@@H]1NC(=O)C1CCCCC1 [CBK289235] | 128.831 |
| O=C(CN1CCOCC1)Nc1sc2c(c1C(=O)Nc1ccc(Br)cc1)CCC2 [CBK265073] | 107.657 |
| O=C(Nc1cccc(-c2nnn[nH]2)c1)c1ccc(Cl)c(Cl)c1 [CBK144713] | 107.631 |
| CC1(c2[nH]nc(N)c2Cc2c(Cl)cccc2Cl)CC1 [CBK115483T] | 68.1208 |
| Cc1noc([C@@H]2C[C@H](NC(=O)Nc3cccc(C#N)c3)CN2C)n1 [CBK288873] | 75.8277 |
| CCN(CC)C(=O)Cn1nc(C)n2c(cc3oc(C)cc32)c1=O [CBK283609] | 95.2681 |
| CC(NCc1ccncc1)=C1C(=O)c2ccccc2C1=O [CBK262890] | 97.6714 |
| COCC1(O)CCN(Cc2sccc2Cl)CC1 [CBK304252] | 109.39 |
| CC1(C)CC(CCNC(=O)CCC(=O)O)(c2ccccc2)CCO1 (stereo not shown) [CBK218198] | 57.8361 |
| Cc1cc(N2CCN(C(=O)c3ccsc3)CC2)nc(C(C)C)n1 [CBK304053] | 42.8713 |
| Cc1c(CC(=O)O)c(=O)oc2cc(OCc3ccc(F)cc3)ccc12 [CBK286674] | 69.4741 |
| O=C1CN(C(=O)NCC2COc3ccccc3O2)CCN1 (stereo not shown) [CBK155847] | 94.8008 |
| COc1cc(C(=O)Nc2ccc3oc(-c4cccnc4)nc3c2)ccc1OCc1ccc(Cl)cc1 [CBK264037] | 106.138 |
| Cn1cc(CNCC2CCCN2c2cccnn2)c(-c2cccnc2)n1 (stereo not shown) [CBK305326] | 31.0242 |
| O=C(O)Cc1nc(-c2ccccc2)c(-c2ccccc2)s1 [CBK159470] | 95.935 |
| Cc1ccc(C(F)(F)F)cc1NCc1csc(C2CCCO2)n1 (stereo not shown) [CBK305424] | 97.2869 |
| Oc1cccc(Sc2nc3ccccc3nc2C(F)(F)F)c1 [CBK093780] | 110.251 |
| CN(CCc1ccncc1)C(=O)CCc1cc(F)ccc1F [CBK304876] | 25.9779 |

| SMILES | % of control remaining |
| --- | --- |
| O=C(O)CC(Cc1ccc(Cl)cc1)C(=O)Nc1ccc([N+](=O)[O-])cc1 (stereo not shown) [CBK261973] | 98.9913 |
| COc1ccc(-c2cncc(N3CCN(c4cccc5[nH]ccc45)CC3)n2)cc1 [CBK066087] | 93.6831 |
| COc1ccc(S(=O)(=O)N2CCN(Cc3ccc4c(c3)OCO4)CC2)c2ccccc12 [CBK074521] | 91.8541 |
| CC(=O)Nc1cccc(CN(CCCO)c2ccccc2)c1 [CBK304833] | 41.2506 |
| CN(C)C(=O)CC(O)c1cc2n(n1)CCN(Cc1cccs1)C2 (stereo not shown) [CBK306620] | 75.6841 |
| Cc1ccccc1Nc1nc(N)nc(CN(CCC#N)CC2CCC2)n1 [CBK305308] | 69.8761 |
| Nc1ccc(-c2nc(NC(=O)c3cccs3)cnc2-c2ccc(F)cc2)cc1 [CBK037597] | 154.358 |
| OC(c1ccncc1)C(O)c1ccncc1 (stereo not shown) [CBK024254] | 72.5552 |
| COc1ccc2sc(N(Cc3cccnc3)C(=O)C3COc4ccccc4O3)nc2c1 (stereo not shown) [CBK294424] | 99.262 |
| Cn1cccc1CNCCN1CCOCC1 [CBK278187C] | 107.946 |
| NS(=O)(=O)c1ccc(CCNC(=O)COc2ccc(Cl)cc2Cl)cc1 [CBK265694] | 103.326 |
| CS(=O)(=O)c1ccc(-c2ccc3c(c2)C(=O)NC(C2CCN(C(=O)OCc4ccccc4)CC2)O3)cc1 (stereo not shown) [CBK156087] | 87.7501 |
| Cc1ccn2c(F)c(C(=O)N3CCCCC3CN3CCOCC3)nc2c1 (stereo not shown) [CBK307028] | 47.1992 |
| O=C(O)C(Cc1c[nH]c2ccccc12)N1C(=O)C2C3c4ccccc4C(c4ccccc43)C2C1=O (stereo not shown) [CBK265377] | 109.045 |
| COC(=O)c1ccc(CN2CCN(CCN3C(=O)c4cccc5cccc(c45)C3=O)CC2)cc1 [CBK074518] | 96.3635 |
| CCCn1ncc(C(=O)N2CCN(CC3CCCN(C)C3)CC2)c1C (stereo not shown) [CBK307122] | 89.8527 |
| CCN1CCN(S(=O)(=O)c2cccc([N+](=O)[O-])c2)CC1 [CBK266675] | 97.0342 |
| COc1cncc(-c2cncc(N3CCN(CCN(C)C)CC3)n2)c1 [CBK065393] | 77.9788 |
| CC1CCN(Cc2csc(NC(=O)CCn3c(-c4cccs4)n[nH]c3=S)n2)CC1 [CBK297892] | 75.538 |
| Cc1c(Cl)cccc1N1CCN(S(=O)(=O)CC23CCC(CC2=O)C3(C)C)CC1 (stereo not shown) [CBK269257] | 124.63 |
| O=C1NC2(CCc3ccccc31)CCN(C(=O)c1ccccn1)C2 (stereo not shown) [CBK283337] | 81.9338 |

| SMILES | % of control remaining |
| --- | --- |
| Cc1c(C#N)c2ccc(O)c(CN(C)C)c2n1-c1ccccc1 [CBK094247C] | 90.0218 |
| Cc1cc(NC(=O)CN(C)Cc2cnn(-c3ccccc3)c2)on1 [CBK305622] | 58.1104 |
| COCCN(Cc1cnn(C)c1)Cc1cc(O)c2cc(F)ccc2n1 [CBK307359] | 83.2892 |
| O=C(c1ncoc1-c1ccc(F)cc1)N1CCOCC1 [CBK282362] | 97.6817 |
| CC1=CCCN(C(=O)C23CCOCC2CN(c2ncccn2)C3)C1 (stereo not shown) [CBK304743] | 99.2431 |
| CS(=O)(=O)N1CCC(Nc2nc(-c3cccs3)nc3ccccc23)CC1 [CBK305987] | 76.6037 |
| O=C(Cn1c(-c2cccs2)cc2cccnc21)NCc1cccnc1 [CBK282457] | 99.8 |
| Cc1ccc(OCC(=O)N2N=C(CC(C)C)CC2(O)C(F)(F)F)cc1C (stereo not shown) [CBK293935] | 101.054 |
| CCCNc1nccnc1-c1ccc(C(=O)N2CCN(C)CC2)cc1 [CBK036892] | 93.3742 |
| CC(NC(=O)CCc1cc2n(n1)CCNC2)c1cn2ccsc2n1 (stereo not shown) [CBK306551] | 59.5455 |
| CC(C)c1nc(C2CCCN(c3ncc(C#N)cc3Cl)C2)no1 (stereo not shown) [CBK304128] | 39.1228 |
| CCn1cc(C2CN(S(=O)(=O)Cc3ccccc3)CCO2)cn1 (stereo not shown) [CBK304129] | 59.2413 |
| CC1=CC(C)C(=S)NC(C)=C1 (stereo not shown) [CBK022735] | 95.9288 |
| CCc1noc(CN2CCC(c3c[nH]c4ccc(OC)cc34)CC2)n1 [CBK305960] | 71.9931 |
| Cc1nn(C)cc1CN1CCC(C(=O)NCCc2ccccc2)C1 (stereo not shown) [CBK281968] | 98.2255 |
| O=c1cnnc(Nc2ccc(Nc3ccccc3)cc2)[nH]1 [CBK287921] | 76.7376 |
| c1ccc2oc(-c3cncc(NCCCN4CCOCC4)n3)cc2c1 [CBK066045] | 85.3864 |
| O=C(O)c1[nH]c2ccccc2c1C(c1cccs1)c1c(C(=O)O)[nH]c2ccccc12 [CBK267786] | 81.5028 |
| CCOC(=O)C1=C(C(=O)OCC)SC(=C2C(=S)C(C)(C)N(C(=O)c3ccc4ccccc4c3)c3ccccc32)S1 [CBK261643] | 87.4403 |
